Whole data set: some 33,000 sequences, median “E-score (-0.5 to 0.5)” near -0.013, cut for the highest 2% near 0.3. The list shows a part of the results.
What follows are sequences tested against T1, Msn1 (UniProt P22148) (assay: PBM E-score (8-mer binding enrichment) (E-score (-0.5 to 0.5)); higher = stronger / more preferred TF binding; most listed sequences are background and not binding sites). Conditions: protein concentration: 200 nM; construct: GST-full length.
T1 sequence: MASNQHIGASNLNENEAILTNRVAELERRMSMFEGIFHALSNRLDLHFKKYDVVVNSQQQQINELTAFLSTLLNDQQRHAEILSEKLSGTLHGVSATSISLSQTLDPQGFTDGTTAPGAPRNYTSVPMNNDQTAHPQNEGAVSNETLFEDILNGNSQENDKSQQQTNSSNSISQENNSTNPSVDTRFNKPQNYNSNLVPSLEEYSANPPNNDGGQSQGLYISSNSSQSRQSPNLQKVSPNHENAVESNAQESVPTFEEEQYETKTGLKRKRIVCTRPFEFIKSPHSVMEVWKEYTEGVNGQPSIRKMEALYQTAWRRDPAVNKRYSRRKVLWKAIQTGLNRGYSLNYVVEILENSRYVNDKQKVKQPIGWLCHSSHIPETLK
Outline: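 The E-score, a modified Wilcoxon-Mann-Whitney statistic, was computed by the Universal PBM Analysis Suite for every ungapped eight-base word pooled with its reverse complement. Scans behind it were normalised with masliner after bound GST-tagged yeast transcription factors were detected with fluorescent anti-GST. The proteins, at about 100-200 nM, had been applied to universal all-10-mer Agilent arrays made double-stranded by primer extension.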

Point of comparison: CAGGGTAC, “PBM E-score” value -0.178. Against it:
- CATGCAAA — higher, 0.0263
- ACGACACC — higher, 0.0705
- CAGCTGCG — higher, -0.143
- CCAACCTA — lower, -0.201
- CATAACAC — higher, -0.0452
- CACCATAG — higher, -0.153
- GGCCAAAA — higher, 0.00072
- AGATGCGG — higher, -0.0218
- ATGTATAG — higher, 0.0462
- ATTGCCTA — higher, -0.131
- CGCGTCCC — higher, 0.0219
- CTGCGTCA — higher, -0.00884
- CACCGGCA — higher, 0.0669
- AGTTCGTC — higher, 0.0758
- AGTAATTG — higher, 0.0742
- GTTAAGGA — higher, 0.0664
- ACTGGGCT — lower, -0.198
- CTTGCCTA — higher, -0.0484
- AGACTGAC — higher, -0.0742
- ACGAGATC — higher, 0.0399
- GCACGCGC — higher, -0.132
- AGGCTTCG — higher, -0.0579
- GATCTTAA — higher, 0.0914
- ACGCTCCG — higher, -0.131
- GACACGTC — higher, 0.295
- CTTCAAGA — higher, 0.162
- GATCTTAC — higher, 0.00117
- GATATTAA — higher, 0.0435
- AGCGAGCG — higher, 0.00381
- GCTGAAGC — higher, -0.105
- AAGCTCAA — higher, 0.141
- CTCTCTTC — lower, -0.18
- AACTTTAG — higher, 0.0922
- AGGCGGAC — higher, -0.027
- CGACATGC — higher, 0.218
- AGTTACGA — higher, 0.0116
- AATACACG — lower, -0.187
- AGCCCTCC — lower, -0.266
- CGAGGCGA — higher, 0.0443
- CTTTCGGA — higher, 0.155
- GAGCATTA — higher, -0.0317
- AGGAACGC — higher, -0.109
- ACTACGGG — lower, -0.199
- GCCTGAGC — higher, -0.0799
- ACGTGCAC — higher, -0.0179
- ATGGGGGG — lower, -0.334
- GTGGCAAA — higher, -0.106
- ATCTCCTA — the same, -0.178
- CTGAGCCC — lower, -0.23
- CTCTCTAA — lower, -0.211
- ACTACACC — higher, -0.0282
- CAATAGAA — higher, -0.0696
- AGGTCTCC — lower, -0.214
- ACCCGATC — higher, -0.157
- AAGTGCAG — higher, -0.0771
- CACCTAGG — higher, -0.044
- CTAGCATC — higher, -0.0427
- ACAACTGT — higher, 0.242
- AAGAGCTC — higher, -0.0373
- CGGGACGC — higher, -0.139
- AAGAGGGT — higher, -0.12
- AGTCAATC — higher, -0.0255
- AATTTGGG — higher, 0.206
- ACTGCGAG — higher, -0.107
- AGTGCCTA — higher, -0.0351
- AACTCGAC — higher, 0.0464
- AGAGCGCA — higher, -0.153
- ATCCCAAT — higher, 0.109
- CTTGAACC — higher, 0.0161
- AATATATT — higher, 0.279
- GACAGCCA — higher, -0.0329
- TCACAGAA — higher, 0.0869
- ACATCACC — higher, 0.0134
- CCATAAAA — higher, 0.157
- ACAATATG — higher, 0.205
- CACTTACG — higher, -0.00802
- AACGCCTG — higher, 0.043
- CGCTGAAC — higher, -0.082
- GCCAGTGA — lower, -0.225
- ATCCCTTC — higher, -0.042
- ACTCTCCA — higher, -0.0814
- AACGACGC — higher, 0.0174
- CAACCCGC — higher, -0.0999
- CGCCCAAA — higher, -0.031
- AGTCGCAC — lower, -0.21
- AATTCTTG — higher, 0.127
- CGATTCCC — higher, -0.135
- AGTGAGTG — higher, -0.164
- CTATACTC — higher, -0.141
- AGCCGCCC — lower, -0.258
- CTCGCGGC — higher, -0.0921
- CCGAACAG — higher, 0.0877
- CGTGTAGC — higher, -0.174
- GATGAATC — higher, 0.0368
- ACTCTAAC — higher, -0.0496
- ACAAAATA — higher, 0.188
- CCGTAGTA — higher, -0.0505
- GGCTTCAA — lower, -0.241
- GCTGAACA — higher, 0.00499
- ATACTGAT — higher, 0.1
- CCTCGAAG — higher, 0.0737
- AGGTTATA — higher, 0.103
- ATAAAGTC — higher, 0.305
- AGAAGGCT — lower, -0.314
- GGGAGTGA — lower, -0.244
- CTAACCAA — higher, -0.0293
- CCTGACCC — higher, -0.0936
- CAGCGCTA — higher, -0.0965
- TACGGTAA — higher, -0.052
- CAGCCGGC — lower, -0.223
- AACCCGAT — higher, 0.194
- GCGCGCGC — higher, 0.333
- GGCCCTAC — higher, -0.163
- GACCCCTC — lower, -0.296
- GACCACAC — higher, -0.0566
- CCTGAAAG — higher, 0.118
- GATTGGTA — higher, 0.069
- AGGCAACG — lower, -0.279
- CCTTCTCA — lower, -0.277
- CTTTGTGA — higher, 0.126
- ACCCGGCC — lower, -0.236
- AAAGAGTA — higher, -0.0873
- AGCTTTGA — higher, -0.0239
- CGGAAGTC — higher, 0.152
- TCGACGCA — higher, 0.15
- CTGTCATC — higher, 0.0737
- CATTAAGC — higher, 0.0171
- AAACTCCG — higher, 0.162
- GTATATAC — higher, 0.145
- ACCTTTAA — higher, -0.0272
- AAATGAGG — higher, -0.0423
- GCCTCGCC — lower, -0.267
- ATGTCGAC — higher, 0.257
- CTCGTCCA — higher, 0.121
- AAGATCGA — higher, 0.0843
- GTCATGAA — higher, 0.102
- AATGTGAT — higher, 0.0196
- AGGCTACT — higher, -0.159
- ACGGTCGC — higher, -0.079
- AGCGCACC — higher, -0.0345
- GTCGACCA — higher, -0.0635
- GATTCACC — higher, -0.145
- AGGGTGTA — higher, -0.0323
- CTGGCCCC — lower, -0.324
- CTACTGGC — lower, -0.231
- GGTCCACA — higher, -0.0821
- AACACTCG — higher, 0.0592
- CTCTGAGC — lower, -0.303
- AAAGGACC — higher, -0.105
- ATGACCAA — higher, 0.0865
- CTCCAGCA — higher, -0.129
- AATAGCGC — higher, -0.0337
- GGATAGCC — lower, -0.189
- GCCCCTAC — lower, -0.317
- AGTTAAAA — higher, 0.126
- ACAAGGTA — higher, -0.00849
- CCGAACAC — higher, 0.105
- TCGTAAGA — higher, 0.115
- GTGTAACA — higher, 0.0781
- ATTGCTAC — higher, -0.0935
- AAGAGAAT — higher, 0.164
- AAGTGTTC — higher, 0.0151
- CGGGAACC — higher, -0.157
- AAGTATGA — higher, 0.0528
- GTAGTCAA — higher, -0.00544
- CATATCAC — higher, 0.066
- ATTGTAGC — higher, -0.0506
- ATCTATCC — higher, -0.0249
- AGGTATCA — higher, -0.119
- CCTAGTTA — higher, 0.0465
- CATCGTAG — higher, -0.172
- CCCACTCA — lower, -0.238
- GGCCATAC — higher, 0.133
- ACGAGTCC — higher, 0.104
- GGACCAAA — higher, 0.0741
- ACGCTTAC — higher, -0.137
- AGGAACAA — higher, 0.0848
- ACTAAGAA — higher, 0.102
- TATGAGGA — higher, -0.0153
- AGTTCGGC — higher, 0.0736
- TACATTGA — higher, 0.105
- ACGTTACG — higher, 0.0842
- TATCCCAA — higher, 0.159
- ACGACACG — higher, 0.206
- AGACTTAG — higher, -0.112
- GTAACCCA — higher, 0.0982
- GTCACCAC — higher, 0.127
- ACCAACGA — higher, 0.0241
- CAAGGTCC — higher, -0.105
- AGCTTTCG — higher, -0.0984
- GCACAAGA — higher, -0.0415
- TCCCGAGA — higher, 0.0235
- CAAGCCTA — higher, -0.0333
- CTTTGGAC — higher, 0.262
- ATTCTCGG — higher, 0.2
- CACTAGCG — higher, -0.0765
- CCAGGGTA — lower, -0.247
- GCGGGCTA — lower, -0.185
- ACGAGCAT — higher, 0.0161
- CCGTACTA — higher, 0.0908
- GATTACTA — higher, 0.025
- AAACCCCG — higher, 0.0184
- GAATCACC — higher, 0.0337
- GTATCGCA — higher, 0.0994
- CGGGACCG — higher, -0.0676
- CAGATATC — higher, -0.0317
- ACGGTGCC — higher, -0.158
- ACAAAGTC — higher, 0.236
- AGTGTCAA — higher, 0.0192
- ACTAGACT — higher, -0.115
- CCCGCACG — lower, -0.203
- ACCTAGGT — lower, -0.238
- AGTGAAAA — higher, -0.0483
- CCGCTGAC — higher, -0.0504
- CAGGTTTA — higher, 0.0966
- AGCGATGA — higher, 0.0269
- ATGAGAAA — higher, 0.137
- TAAGACGA — higher, -0.00272

Reference: the supplement of paper PMC3334620
